# Experimental data taken from PubChem BioAssay AID924 (National Center for Advancing Translational Sciences (NCATS), 2007).
# About 1,200 (0.92%) of roughly 130,000 compounds were called active. This list was built around the results that the source calls inconclusive (neither active nor inactive); the mix of calls is not that of the screen. The call rests on the fitted dose curve; in most records, active means well fitted cell-killing curve with a large enough effect; inconclusive means small, poorly fitted or top-dose-only effect; inactive means no such curve, though single readings can be large or run the other way. Potencies beside an inconclusive call are fits to weak or partial responses and may not hold up.
# Test: qHTS Screen for Compounds that Selectively Target Cancer Cells with p53 Mutations: Cytotoxicity of p53ts Cells at the Permissive Temperature; further: nearly all actives have a fitted effect of over 55% in size;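 on activity change, negative = cytotoxicity: 0% = DMSO and -100% = full killing by reference compound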
# Conditions: H1299-p53A138V at 32C, ATP luminescence viability, 24 h; activity change, negative = cytotoxicity: at 46.1 µM (top of the series)
# Method in brief: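 H1299-p53 A138V cells (temperature-sensitive p53) exposed 24 h to up to 46 uM compound at 32C, where p53 is wild-type in conformation. Viability read as ATP luminescence and normalised to DMSO and 100 uM tamoxifen. AC50 fitted with the Hill equation.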
# Potency means the concentration at half of the fitted maximal effect; tags describe the fitted curve by direction and shape.
SMILES,Potency,"activity change, negative = cytotoxicity"
CCOc1ccccc1NC(=O)c1nc(S(=O)(=O)Cc2cccc(C)c2)ncc1Cl,active: 15.8 µM,
Cc1ccc(-c2nnn(CC(=O)Nc3ccc(S(=O)(=O)N4CCC(C)CC4)cc3)n2)cc1,"inconclusive: 31.6 µM [cytotoxic, single point]",
N#CCCn1c(=O)c(-c2ccccc2)nc2cnc(Nc3ccccc3)nc21,"inconclusive: 15.8 µM [cytotoxic, single point]",
Cc1ccc(C)n1-c1ccc(N2CCOCC2)cc1,"inconclusive: 15.8 µM [cytotoxic, single point]",
COc1ccc(C)cc1NC(=O)c1ccc2c(c1)OCO2,"inconclusive: 31.6 µM [cytotoxic, single point]",
O=c1c(-c2ccc(Cl)cc2)nc2cnc(N3CCNCC3)nc2n1Cc1ccc(F)cc1,"inconclusive: 15.8 µM [cytotoxic, single point]",
CCc1ccc2oc(-c3cc(N=Cc4cccc(OC)c4O)ccc3O)nc2c1,active: 10 µM,
O=C(CN1C(=O)NC2(CCCC2)C1=O)Nc1cccc(-c2nnc3n2CCCCC3)c1,,inactive: -0.794%
CCN1CCN(Cc2ccc(NC(=O)Nc3ccccc3Cl)cc2)CC1,active: 10 µM,
CCOc1ccc(C2C(=O)N(C3CCCCCC3)CC(=O)N2Cc2ccc(C)cc2)cc1OC (configuration not stated),,inactive: 5.32%
CCC(CC)C(=O)Nc1nnc(S(=O)(=O)N(C)c2cc(C)cc(C)c2)s1,,inactive: 6.61%
CC(C)(SCc1ccccc1)[C@H](N)C(=O)O,,inactive: -8.89% [at 9.22 µM]
Cc1ccc(Sc2ccc(N3CCC(C(=O)Nc4cc(C)cc(C)c4)CC3)nn2)cc1,"inconclusive: 25.1 µM [cytotoxic, single point]",
O=C(Cn1cnc2c(nnn2-c2ccccc2)c1=O)NCc1ccco1,"inconclusive: 25.1 µM [cytotoxic, single point]",
CC(=O)NCC(=O)OCC(=O)c1ccc(C)cc1,,inactive: 0.557%
Cc1cc(F)ccc1NC(=O)c1csc2c1CCC(C)C2 (configuration not stated),"inconclusive: 5.01 µM [cytotoxic, single point]",
N#CCCn1c(=O)c(-c2cccs2)nc2cnc(N3CCNCC3)nc21,"inconclusive: 15.8 µM [cytotoxic, single point]",
CC(Oc1ccccc1)C(=O)Nc1ccc(C(=O)OCc2cc(=O)n3nc(C(C)C)sc3n2)cc1 (configuration not stated),"inconclusive: 0.631 µM [cytotoxic, full curve, poor fit]",
Cc1ccc(NC2=NC(C(=O)Nc3ccc(C)c(C)c3)CC(=O)N2)cc1 (configuration not stated),"inconclusive: 12.6 µM [cytotoxic, partial curve]",
Cc1ccc(C(=O)Nc2nc3ccccc3c(=O)s2)cc1,active: 12.6 µM,
Cc1ccc(NC2=CC(=O)C(=O)c3ccccc32)cc1,"inconclusive: 15.8 µM [cytotoxic, single point]",
c1ccc(-c2ccc(N3CC[C@@]4(CCCNC4)C3)cc2)cc1,"inconclusive: 12.6 µM [cytotoxic, partial curve]",
O=C(NCc1ccccc1Br)c1ccc(-n2cnc3cccnc32)cc1,,inactive: -14.1%
CCCCN(C)c1ncnc2c1cnn2-c1cccc(Cl)c1,"inconclusive: 10 µM [cytotoxic, partial curve]",

SMILES,Potency,"activity change, negative = cytotoxicity"
CSc1ccccc1NC(=O)CCS(=O)(=O)c1nc(-c2cccs2)cc(C(F)(F)F)n1,"inconclusive: 31.6 µM [cytotoxic, single point]",
CC1CN(c2nc3ccccn3c(=O)c2/C=C(\C#N)S(=O)(=O)c2ccccc2)CC(C)O1 (configuration not stated),,inactive: -0.236%
CCOc1ccc2nc(NC(=O)CSC3=NCCS3)sc2c1,"inconclusive: 25.1 µM [cytotoxic, single point]",
Cc1ccc(C(=O)Nc2nnc(SCc3cc(=O)n4ccc(C)cc4n3)s2)cc1,"inconclusive: 3.98 µM [cytotoxic, single point]",
Cn1c(=O)c2cc(C(=O)NC3CCCCCC3)sc2c2ccccc21,"inconclusive: 15.8 µM [cytotoxic, single point]",
CN1CCN(C(=O)Cn2ncc3c4ccccc4n(Cc4ccc(F)cc4)c3c2=O)CC1,,inactive: 15.4%
CCOc1ccc(NC(=O)C(=O)NCC(c2cccnc2)N2CCc3ccccc32)cc1 (configuration not stated),,inactive: -13.5%
CCOc1ccc2nc(NC(=O)CSc3nnc(-c4ccncc4)n3CC3CCCO3)sc2c1 (configuration not stated),"inconclusive: 10 µM [cytotoxic, partial curve]",
Cc1ccc(Nc2nnc(SCC(=O)Nc3cccc(S(=O)(=O)N4CCCCC4)c3)s2)cc1,,inactive: -19.7%
Cc1ccc2oc(=O)n(CCOc3ccccc3Cl)c2c1,,inactive: -5.05%
CCOc1ccc(-c2nc3ccccc3c(=O)o2)cc1,active: 2.51 µM,
Cc1ccc(-n2c(=O)c3ccc(C(=O)NCc4ccccc4Cl)cc3n(CC(=O)Nc3ccc(C)cc3C)c2=O)cc1,"inconclusive: 31.6 µM [cytotoxic, single point]",
CCCCNc1nc(SC)nc2nc[nH]c12,,inactive: 3.62% [at 9.22 µM]
COc1ccc2nc(NC(=O)CN3CCN(C)CC3)sc2c1,,inactive: -9.5%
O=C(Nc1nc2ccccc2s1)C1CCCO1 (configuration not stated),"inconclusive: 20 µM [cytotoxic, single point]",
COc1ccc(NC(=O)Nc2cccc(OC)c2)cc1,"inconclusive: 12.6 µM [cytotoxic, partial curve]",
CCc1nnc(NC(=O)c2nc(S(=O)(=O)Cc3cccc(C)c3)ncc2Cl)s1,"inconclusive: 20 µM [cytotoxic, single point]",
Cc1cccc(OCc2cc(=O)n3c(-c4ccccc4)csc3n2)c1C,,inactive: -9.03%
Fc1cccc2sc(Nc3nnc(-c4ccco4)o3)nc12,"inconclusive: 31.6 µM [cytotoxic, single point]",
Cc1nnc(NC(=O)c2sc3ccccc3c2Cl)s1,active: 1.26 µM,
CCn1c(=O)c2sccc2n2c(CCCC(=O)N3CCN(c4ccc(OC)cc4)CC3)nnc12,,inactive: 9.59%
CCOCCCNC(=O)C(c1ccccc1)N(Cc1cccs1)C(=O)c1ccc(NC(C)=O)cc1 (configuration not stated),,inactive: -0.432%
O=C(Nc1ccc(N2CCOCC2)cc1)Nc1cnsn1,"inconclusive: 25.1 µM [cytotoxic, single point]",
